In all, about 360,000 compounds went through this assay and about 11,000 (3.1%) were called active. Inconclusive means that the source gave no clear call. Such entries were picked first, then a sample of the others. Calls come from the whole dose curve; as a rule, active = well fitted inhibition curve with a large enough effect; inconclusive = small, poorly fitted or top-dose-only effect; inactive = no such curve, though single readings can be large or run the other way. No potency is given beside an inconclusive call; the fits are too rough.
What follows are compounds tested against Schistosoma mansoni thioredoxin glutathione reductase (TGR) (UniProt Q962Y6) (assay: qHTS Assay for the Inhibitors of Schistosoma Mansoni Peroxiredoxins). Details: purified TGR, DTNB reduction, TNB absorbance 405 nm; series mostly up to 114 µM.
Summary of the method: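 Kinetic colorimetric format: TGR-catalysed, NADPH-driven DTNB reduction monitored via TNB absorbance. Enzyme dispensed at 20 nM; compound exposure 15 min at room temperature before reaction start.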
With Cc1ccc(N(C(=O)c2ccccc2Cl)C2=NC(C)CS2)c(C)c1 (configuration not stated) the Potency was “inactive”.
In the case of Clc1cccc(Cl)c1-c1noc(CN2CCOCC2)n1, the Potency is reported as “inactive”.
For O=[N+]([O-])c1ccc(C(O)CN2CCN(C/C=C/c3ccccc3)CC2)cc1 (configuration not stated), the Potency was inconclusive [inhibitor, partial curve].
O=C1C(Nc2ccccc2)=CC(c2ccc(Br)cc2)N1c1ccccc1 (configuration not stated) was tested, and the Potency was inconclusive [inhibitor, partial curve].
With CCc1ccc(C2C(C#N)=C(N)C(C#N)(C#N)C3=CCC(C(C)(C)C)CC32)cc1 (configuration not stated) the Potency was inconclusive [inhibitor, partial curve].
COc1ccc2c(c1)nc(SCC(=O)c1ccc(Br)s1)n2C was tested, and the Potency was active: 31.6 µM.
With CCC(=O)NC(=S)Nc1cccc(NC(=O)c2ccccc2C)c1 the Potency was inconclusive [inhibitor, full curve].
O=C(CCl)Nc1cc2[nH]c(=O)[nH]c2cc1Br was tested, and the Potency was inconclusive [inhibitor, full curve, poor fit].
O=[N+]([O-])/C(C(Cl)=C(Cl)Cl)=C(\Sc1ccccc1)N1CCCCC1 was tested, and the Potency was active: 12.6 µM.
With COc1cc(-c2cccs2)cc(=O)c2c(C)oc(C)c12 the Potency was active: 39.8 µM.
With CCC(=O)Nc1ccc2c(c1)nc1n2CCN(C2CCCCC2)C1 the Potency was inconclusive [inhibitor, single point].
In the case of Cc1ccc2[nH]c(CCN(C)C)c(CC#N)c2c1, the Potency is reported as inconclusive [inhibitor, partial curve].
With CCOC(=O)c1c(NC(=O)CSc2ncccn2)sc2c1CCN(Cc1ccccc1)C2 the Potency was “inactive”.
In the case of COc1ccc(C2c3[nH]c4ccccc4c3CCN2C(=O)Cc2nonc2C)c(F)c1 (configuration not stated), the Potency is reported as “inactive”.
For O=C(Cc1cccc(F)c1)Nc1ccc2c(c1)CCC2, the Potency was “inactive”.
Cc1nc(SCC(=O)CC(=O)OC(C)C)c(C#N)c(C)c1C was tested, and the Potency was inconclusive [inhibitor, partial curve].
Cc1[nH][nH]c(=O)c1N=Nc1ccc(F)cc1 was tested, and the Potency was inconclusive [inhibitor, single point].
For CCOC(=O)Cn1c(=O)oc2cc(S(=O)(=O)N3CCCC(C(=O)OCC)C3)ccc21 (configuration not stated), the Potency was inconclusive [inhibitor, partial curve, poor fit].
With COc1cc(/C=C/C(=O)c2ccccc2O)cc(OC)c1OC the Potency was inconclusive [inhibitor, full curve].
C=C(C)CC1Nc2ccccc2NC1CC(=C)C (configuration not stated) was tested, and the Potency was inconclusive [inhibitor, partial curve, poor fit].
With Cc1ccc(CNC(=O)c2cn(C)c(=O)c3c2c2ccccc2n3C)o1 the Potency was active: 22.4 µM.
In the case of COC(=O)c1ccc(-c2ccco2)n1Cc1cccc(C)c1, the Potency is reported as inconclusive [inhibitor, partial curve].
In the case of Oc1c(/C=N/c2ccccn2)sc2ccccc12, the Potency is reported as inconclusive [inhibitor, single point].
With O=C(CC1C(=O)NCCN1Cc1ccc(-c2ccccc2)cc1)NCc1ccccc1 (configuration not stated) the Potency was inconclusive [inhibitor, partial curve].
In the case of O=C(Nc1cccc(Cl)c1)NC1CCN(C2CCCCC2)C1 (configuration not stated), the Potency is reported as “inactive”.
In the case of COc1cc(/C=N/NC(=O)c2ccncc2)ccc1OCCN1CCCCC1, the Potency is reported as “inactive”.
Cn1c(C(=O)NCc2ccco2)cc2c(=O)[nH]c3ccccc3c21 was tested, and the Potency was inconclusive [inhibitor, partial curve, poor fit].
In the case of COc1cc(/C=C/C(=O)O)cc(S(=O)(=O)NCc2ccco2)c1OC, the Potency is reported as active: 31.6 µM.
With c1ccc2c(CSCCc3ccncc3)cccc2c1 the Potency was inconclusive [inhibitor, partial curve].
COc1ccc(NC(=O)[C@@H]2CCCN2S(=O)(=O)c2cccc3cccnc23)cc1 was tested, and the Potency was inconclusive [inhibitor, partial curve].
In the case of CCC1=[N+](CC(=O)c2ccc(Br)cc2)CCn2c(C)ccc21, the Potency is reported as active: 17.8 µM.
For CCc1nnc(NC(=O)CSc2nc(-c3ccccc3)c(-c3ccccc3)o2)s1, the Potency was “inactive”.
CCc1cc2c3c(c1)C1(C(=O)N3C(C)(C)C=C2C)C(C#N)=C(N)Oc2[nH]c(=O)[nH]c(=O)c21 (configuration not stated) was tested, and the Potency was inconclusive [inhibitor, full curve, poor fit].
With O=C(Nc1ccc(F)cc1F)c1ccc(-n2cccn2)c([N+](=O)[O-])c1 the Potency was active: 44.7 µM.
CCCC1C2C(=O)N(c3ccccc3OC)C(=O)C2ON1c1ccccc1 (configuration not stated) was tested, and the Potency was inconclusive [inhibitor, full curve].
For O=C(c1ccc(Cl)cc1)C1C2C(=O)N(c3ccccc3)C(=O)C2C2CCCN21 (configuration not stated), the Potency was inconclusive [inhibitor, full curve, poor fit].
O=C(N/N=C/c1c(O)n(CCc2ccccc2)c(=O)[nH]c1=O)c1ccccc1 was tested, and the Potency was inconclusive [inhibitor, single point].
COc1ccc(-c2cc(C(F)(F)F)nc(SCC(=O)N3CCC(C)CC3)n2)cc1 was tested, and the Potency was “inactive”.
For COc1cccc(C2C([N+](=O)[O-])=C(N)Oc3cc(C)oc(=O)c32)c1 (configuration not stated), the Potency was inconclusive [inhibitor, partial curve].
CCOc1ccc(NC(=O)CC2C(=O)N(c3ccccc3)C(=O)N2Cc2ccc3c(c2)OCO3)cc1 (configuration not stated) was tested, and the Potency was “inactive”.
With CCOC(=O)C1=C(CN2CCN(c3ccccc3F)CC2)NC(=O)NC1c1ccc(Cl)cc1 (configuration not stated) the Potency was “inactive”.
N#CCCN(C(=O)COc1ccc(Cl)cc1Cl)c1ccccc1 was tested, and the Potency was “inactive”.
For COc1cc2c(cc1OC)C(c1ccc(C)o1)CC(=O)N2 (configuration not stated), the Potency was inconclusive [inhibitor, partial curve].
With Cn1c(Cn2nnc3ccccc32)nnc1SCC(=O)c1ccccc1F the Potency was inconclusive [inhibitor, partial curve, poor fit].
In the case of CCCCN1CC(c2nc3ccccc3n2CCCCOc2cc(C)ccc2C)CC1=O (configuration not stated), the Potency is reported as “inactive”.
For Cc1ccc(NC(=O)CC2SC3=NCCCN3C2=O)c(C)c1 (configuration not stated), the Potency was active: 2.82 µM.
CCC(c1nnnn1Cc1ccccc1)N(Cc1cc2cc(OC)ccc2[nH]c1=O)CC1CCCO1 (configuration not stated) was tested, and the Potency was inconclusive [inhibitor, partial curve].
Note: nearly all actives have a fitted effect of over 60% in size.
Potency is the fitted concentration of half-maximal effect; tags give direction and shape of the fitted curve.
